# Test results as given in PubChem BioAssay AID1508623 (National Center for Advancing Translational Sciences (NCATS), 2021).
# Among all 48,000 compounds or so, about 450 (0.94%) were called active. Roughly 19% stayed inconclusive and do not appear here. Calls come from the whole dose curve; as a rule, active = well fitted inhibition curve with a large enough effect; inconclusive = small, poorly fitted or top-dose-only effect; inactive = no such curve, though single readings can be large or run the other way. The list shows a part of the results.
# Assay: Primary qHTS for Identification of Small Molecule Inhibitors of Huntingtin Promoter Activity; note: nearly all actives have a fitted effect of over 50% in size
# Conditions: HEK293 HTT promoter firefly luciferase reporter (activity 0% = vehicle and -100% = no light), 24 h; series mostly up to 57.5 µM; activity change, negative = inhibition: at the top concentration
# How it was run: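 Quantitative HTS used concentration series of up to 57.5 uM final on HEK293 luciferase reporter cells, 24 h at 37 degrees C. Readout was Dual-Glo firefly luminescence.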
# Potency is the fitted concentration of half-maximal effect.
SMILES,"activity change, negative = inhibition",Potency
Cc1onc(-c2ccccc2)c1-c1ccc(S(N)(=O)=O)cc1,inactive: -7.47%,
O=C(NCCN1CCN(c2ccccc2)CC1)Nc1ccccc1Br,inactive: -3.48%,
Cc1cccc(CNC(=O)C2CCN(c3nnc(-n4c(C)ccc4C)s3)CC2)c1,inactive: -21.2%,
Cc1cccc(-c2noc(CN(C(=O)c3ccccc3Cl)C(C)C)n2)c1,inactive: -19.7%,
COc1ccc(CCNC(=O)CCCn2c(=O)c3ccccc3n(Cc3ccc(F)cc3Cl)c2=O)cc1OC,inactive: -2.63%,
Cn1c(C(=O)NCCc2ccccc2)cc2c(=O)n3ccccc3nc21,inactive: 54.3%,
Cc1ccc(CNc2nc3ccccc3c3nc(-c4cccc(C)c4)nn23)cc1,inactive: 33.6%,
COc1ccc(Cn2c(CNS(=O)(=O)c3ccc4c(c3)CCCC4)nc3cccnc32)cc1,inactive: -14.4%,
O=C(c1cnc(N2CCCCC2)c2ccccc12)N1CCN(c2ccccc2F)CC1,inactive: -18.5%,
Cc1ccc2c(c1)c1c(c(=O)n(Cc3ccccc3)c(=O)n1Cc1cccc(C(F)(F)F)c1)n2C,inactive: -6.07%,
c1csc(C2=NC(c3ccncc3)=Nc3ccccc3N2)c1,inactive: -5.38%,
O=C(CSC1=Nc2ccccc2N=C(c2ccc(F)cc2)C1)NCc1ccccc1,inactive: -13.7%,
CC(=O)N1CCc2cc(CNS(=O)(=O)c3ccc(Br)s3)ccc21,inactive: -5.46%,
CCOc1ccc(C(=O)NCCc2sc3nc(-c4ccc(Cl)cc4)nn3c2C)cc1OCC,inactive: -9.3%,
O=C(NCCc1ccc(Cl)cc1)c1ccc(Cn2c(=O)c3cccn3c3cccnc32)cc1,inactive: -30.2%,
CC1CCCN(Cc2cn3c(-c4cccc(Br)c4)nnc3s2)C1 (centres undefined),inactive: 1.91%,
CCCc1cc(=O)[nH]c(=S)[nH]1,inactive,
CC(C(=O)Nc1cc(C(F)(F)F)ccc1Cl)n1nnc2sc3c(c2c1=O)CCCC3 (centres undefined),inactive: -7.36%,
Cc1ccccc1C(=O)NCc1nc2cccnc2n1Cc1ccccc1,inactive: 0.917%,
Cc1ccc2oc(-c3ccc(C)c(NC(=O)c4ccc(C(C)(C)C)cc4)c3)nc2c1,inactive: -2.04%,
Cc1ccc(-c2csc(=Nc3ccccc3)n2Cc2ccc3c(c2)OCO3)cc1C,inactive: 23.9%,
CCN1CCN(C(c2ccccc2)c2sc3nc(-c4ccco4)nn3c2O)CC1 (centres undefined),inactive: 8.25%,
CCOc1ccccc1C(=O)Oc1c(Sc2ccccc2)c(C)nn1C(C)(C)C,inactive: -3.02%,
COc1ccccc1C(=O)n1nc(-c2ccco2)nc1NCc1ccc(Cl)cc1,inactive: 46.9%,
COc1ccccc1NC(=O)c1c(NCc2ccc(C)o2)sc2c1CCC(C)C2 (centres undefined),inactive: -26.5%,

SMILES,"activity change, negative = inhibition",Potency
COCCc1nn2c(=O)cc(COC(=O)COc3ccc(F)cc3)nc2s1,inactive: -2.48%,
CCCOC(=O)c1c(NC(=O)C2c3ccccc3Oc3ccccc32)sc2c1CCC(C)C2 (centres undefined),inactive: -23.5%,
CCC(O)c1cc2c(cc1NC(=O)c1cccc(Br)c1)OCCO2 (centres undefined),inactive: -2.94%,
O=C(O)[C@H](Cc1c[nH]c2ccccc12)N1C(=O)c2ccccc2C1=O,inactive: -22.2% [at 116 µM],
COc1ccc(-c2nc3ccccc3o2)cc1NC(=O)C(C)Oc1ccc(Cl)cc1Cl (centres undefined),inactive: -1.27%,
CC(C)C12CN3CC(C(C)C)(CN(C1)C3c1ccc(Cl)cc1)C2=O (centres undefined),inactive: -7.12%,
CN(C)CCCN(C(=O)c1cccs1)c1nc2ccc(F)cc2s1,inactive: 10.1%,
Cc1ccc(CNC(=O)CSc2nc(=O)[nH]c3c2CCCC3)cc1,inactive: -4.35%,
O=C(CN1C(=O)CCc2cc(S(=O)(=O)N3CCOCC3)ccc21)Nc1cccc(Cl)c1,inactive: -22.8%,
CCCSc1ncc(Cl)c(C(=O)N(Cc2ccc(N(C)C)cc2)C2CCS(=O)(=O)C2)n1 (centres undefined),inactive: -25.9%,
COc1ccc(NC(=O)Cn2cnc3sc(C)c(S(=O)(=O)N4CCN(C)CC4)c3c2=O)cc1Cl,inactive: -1.29%,
CCOC(=O)CNC(=O)N1CCc2cc(S(=O)(=O)N3CCC(C)CC3)ccc21,inactive: -17.4%,
CCOC(=O)c1ccc(N2C(=O)c3n[nH]c(C)c3C2c2ccc(C(C)(C)C)cc2)cc1 (centres undefined),inactive: 2.84%,
CNC(=O)C1CCC(Cn2c(=O)[nH]c3ccsc3c2=O)CC1 (centres undefined),inactive: 0.899%,
Cc1ccccc1-n1c(/C=C/c2c(C)n(C)c3ccccc23)nc2ccccc2c1=O,inactive: -10.6%,
CC(C)(C)OC(=O)N1CCC(c2c(C(=O)N3CCN(c4ncccn4)CC3)cnn2-c2ccccc2)CC1,inactive: 5.84%,
CCOC(=O)c1cccc(NC(=O)c2cc(CN3CCOCC3)on2)c1,inactive: 60.9%,
CSc1ccc(CNc2ncc(-c3ccccc3)n2C)cc1,inactive: -20.9%,
CCOC(=O)c1ccc(NC(=O)COCc2cc(-c3ccc4c(c3)OCO4)on2)cc1,inactive: -8.06%,
COc1ccc2c(c1)c(=O)c(S(=O)(=O)c1ccc(Cl)cc1)cn2C,inactive: -17.3%,
Cc1ccccc1CNC(=O)C1CCN(c2nnc(-n3c(C)ccc3C)s2)CC1,inactive: -17.5%,
CC(=O)Nc1c(C)nn(-c2ccccc2)c1N1CCC(C(=O)Nc2ccc(F)cc2Cl)CC1,inactive: 10.3%,
Cc1cccc(NC(=O)N2CCC(CN3CCC(C)CC3)CC2)c1C,inactive: -9.94%,
CCOC(=O)c1c(C)[nH]c(C)c1S(=O)(=O)N1CCCC(C(=O)Nc2ccccc2OCC)C1 (centres undefined),inactive: -22%,
CCc1cccc(CC)c1NC(=O)C(CC)n1nc(C)n2c(cc3cc(C)ccc32)c1=O (centres undefined),inactive: 1.83%,

SMILES,"activity change, negative = inhibition",Potency
Cc1ccc2c(c1)C(c1ccccc1)N(C(=O)c1ccccc1F)CC(=O)N2 (centres undefined),inactive: -27.7%,
CCOC(=O)c1cccc(NC(=O)c2cc3cc4ccc(C)cc4nc3o2)c1,inactive: 1.42%,
CCCn1c(SCc2nc(-c3cc(OC)ccc3OC)no2)nnc1-c1ccc(Cl)cc1,inactive: -23.4%,
CCN1CCN(c2csc3ccc(C)cc3c2=O)CC1,inactive: 48.7%,
Cc1ccccc1-c1noc(-c2cc3ccccc3oc2=O)n1,inactive: 110%,
COc1ccc(Br)cc1CNC(=O)CSc1cc(=O)n(C)c2ccccc12,inactive: -12.7%,
Cc1ccc(-c2nc(CS(=O)(=O)CC(=O)N3CCN(c4cccc(C)c4C)CC3)c(C)o2)cc1,inactive: -21.4%,
CC1CCN(S(=O)(=O)c2ccc3c(c2)oc(=O)n3CC(=O)NC(C)c2ccccc2)CC1 (centres undefined),,active: 14.1 µM
CCCc1ccc(OC(C)C(=O)Nc2sc3c(c2C(=O)OC)CCCCC3)cc1 (centres undefined),inactive: -14.1%,
CSc1nc(Nc2cccc(C)c2)c(C#N)c(-c2ccccc2)n1,inactive: -3.8%,
CNc1c(NC(=O)c2cc(OC)cc(OC)c2)c(=O)oc2ccccc12,inactive: -7.87%,
Cn1c(SCC(=O)N2CCCc3ccccc32)ncc(C(=O)Nc2ccc(F)cc2)c1=O,inactive: -4.61%,
CCCCNC(=O)c1nn(-c2ccc(C)cc2)c(=O)c2c1c1ccccc1n2C,inactive: -26.8%,
Cc1cccc(CNC(=O)c2cccc(NC(=O)N3CCSc4ncccc43)c2)c1,inactive: -25.3%,
O=C(O)CC(O)C(=O)O (centres undefined),inactive: -3.31%,
CCOc1ccc(-n2ccn3c(CC(C)CC(=O)O)nnc3c2=O)cc1 (centres undefined),inactive: -9.75%,
COc1ccc2c(c1)c1c(c(=O)n(-c3ccc(C)cc3)c(=O)n1CC(=O)N1CCCC1)n2C,inactive: -16.9%,
CCC12CN3CC(C)(CN(C1)C3c1ccccc1C)C2=O (centres undefined),inactive: -7.42%,
CCOC(=O)C1=C[C@@H](OC(CC)CC)[C@H](NC(C)=O)[C@@H](N)C1,inactive: 7.94%,
CCOC(=O)N1CCC(NC(=O)c2ccc3c(c2)N(Cc2ccccc2)C(=O)c2ccccc2S3=O)CC1 (centres undefined),inactive: -15.9%,
CCCCN(Cc1ccccc1)S(=O)(=O)c1cc(Br)cc2c1N(C(=O)C1CC1)CC2,inactive: -24.9%,
CCCNC(=O)CCn1nc(-c2ccccc2)c2ccccc2c1=O,inactive: -13.9% [at 11.5 µM],
O=C(CSc1nnc(CNC(=O)c2ccccc2F)n1-c1ccccc1)Nc1ccccc1F,inactive: -15.5%,
CC(=O)C1=C(c2ccc(Cl)c(Cl)c2)N(C(C)=O)n2c(nnc2C2CCCCC2)S1,inactive: -5.93%,
O=C(CCc1nnc2n(Cc3ccccc3Cl)c(=O)c3ccccc3n12)Nc1ccc(F)cc1,inactive: -12.2%,

SMILES,"activity change, negative = inhibition",Potency
CCC(Cn1nnc2ccccc2c1=O)NC(=O)Nc1ccc(C)cc1 (centres undefined),inactive: 5.03%,
Cc1ccc(S(=O)(=O)c2cnc(SC(C)C(=O)Nc3ccccc3)[nH]c2=O)cc1 (centres undefined),inactive: -5.88%,
CCOc1ccc(OCC)c(NC(=O)c2cc(CN3CCOCC3)on2)c1,inactive: 13.2%,
Cc1ccc(NC(=O)CCNS(=O)(=O)c2ccc(Br)s2)cc1,inactive: -10.7%,
CCOC(=O)C1CCCN(C(=O)c2cccc(NC(=O)c3nsc4ccccc34)c2)C1 (centres undefined),inactive: 52.3%,
O=C(NCCS(=O)(=O)N1CCN(c2ccccc2F)CC1)C(c1ccccc1)c1ccccc1,inactive: -25.2%,
CNCCCC1c2ccccc2C=Cc2ccccc21,inactive: -12.7%,
Cc1ccc(-c2nc(NC(=O)CSc3ncnc4sc5c(c34)CCC(C)C5)ns2)cc1 (centres undefined),inactive: 1.29%,
COc1ccc(-n2cc(C(=O)OCc3ccc(F)c(F)c3)c3ccccc3c2=O)cc1,inactive: -15.2%,
CCc1ccc(NS(=O)(=O)c2ccc3[nH]cc(C(=O)NCCc4cccc(C)c4)c(=O)c3c2)cc1,inactive: 0.525%,
COc1ccc(C2C(=O)N(C3CCCCC3)CC(=O)N2CCC2=CCCCC2)cc1 (centres undefined),inactive: -19.3%,
O=C(NC1(C(F)(F)F)C(=O)Nc2c1c(=O)[nH]c(=O)n2-c1ccc(F)cc1)c1ccccc1 (centres undefined),inactive: -9.56%,
CCOc1ccc(-n2c(=O)c3sc4ccccc4c3n(Cc3cccc(C)c3)c2=O)cc1,inactive: -20.3%,
Cc1ccc(OC(=O)c2cc(-c3ccc(Cl)cc3)on2)c(C)c1,inactive: -5.87%,
Cc1cccc(N2CCN(C(=O)CCc3c(C)nc4c(c3C)c(=O)n(C)c(=O)n4C)CC2)c1C,inactive: -8.47%,
CC1CCC(NC(=O)c2ccc3c(c2)N(Cc2ccccc2F)C(=O)c2ccccc2S3=O)CC1 (centres undefined),inactive: 3.76%,
CCOc1ccc(CCNC(=O)Cn2ncn3c(cc4sc(C)cc43)c2=O)cc1OCC,inactive: -6.72%,
O=C(NCc1ccccc1)C(=O)NCC(c1ccc2c(c1)OCO2)N1CCOCC1 (centres undefined),inactive: 11.4%,
COc1ccc2c(c1)sc1ncc(C(=O)NCc3ccc(Cl)cc3)c(=O)n12,inactive: -3.81%,
CCN1CCN(c2oc(/C=C/c3ccc(OC)c(OC)c3)nc2C#N)CC1,inactive: -12.2%,
Clc1ccc(-c2cn3ncsc3n2)cc1,inactive: 11%,
COc1cccc(CNC(=O)C(NS(=O)(=O)c2cccs2)C(C)C)c1 (centres undefined),inactive: -12.1%,
O=c1c2cccnc2n(Cc2ccccc2F)c(=O)n1Cc1ccc(F)cc1,inactive: -23.8%,
CCCCN1C(=O)c2[nH]nc(-c3ccccc3O)c2C1c1cc(Br)c(O)c(OC)c1 (centres undefined),inactive: -15.5%,
